Test results from PubChem BioAssay AID1468 (National Center for Advancing Translational Sciences (NCATS), 2008).
Where “and” joins values, the source holds several entries; their conditions need not be identical. Identical values can stand only once. Screen size: about 280,000 compounds; about 1,100 (0.39%) were called active. Inconclusive results, whose numbers are uncertain, are shown with a selection of clear calls. The call rests on the fitted dose curve; in most records, active means well fitted inhibition curve with a large enough effect; inconclusive means small, poorly fitted or top-dose-only effect, or effect the other way; inactive means flat fitted curve, though single readings scatter. Where the call is inconclusive, the potency comes from a doubtful curve fit.
Further: nearly all actives have a fitted effect of over 55% in size.
On the % scale 0 is the no-effect control and ±100 the full control effect; potency means the concentration at half of the fitted maximal effect; tags describe the fitted curve by direction and shape.

The compounds below were run against Microtubule-associated protein tau (Homo sapiens) (UniProt P10636) (assay: qHTS for Inhibitors of Tau Fibril Formation, Fluorescence Polarization). Conditions: K18 P301L tau heparin fibrillization, Alexa594 FP, 6 h; series mostly up to 57.7 µM; activity, negative = inhibition: at the top concentration.
Chain of UniProt P10636 (P10636 whole entry, looked up, the tested form may be a part): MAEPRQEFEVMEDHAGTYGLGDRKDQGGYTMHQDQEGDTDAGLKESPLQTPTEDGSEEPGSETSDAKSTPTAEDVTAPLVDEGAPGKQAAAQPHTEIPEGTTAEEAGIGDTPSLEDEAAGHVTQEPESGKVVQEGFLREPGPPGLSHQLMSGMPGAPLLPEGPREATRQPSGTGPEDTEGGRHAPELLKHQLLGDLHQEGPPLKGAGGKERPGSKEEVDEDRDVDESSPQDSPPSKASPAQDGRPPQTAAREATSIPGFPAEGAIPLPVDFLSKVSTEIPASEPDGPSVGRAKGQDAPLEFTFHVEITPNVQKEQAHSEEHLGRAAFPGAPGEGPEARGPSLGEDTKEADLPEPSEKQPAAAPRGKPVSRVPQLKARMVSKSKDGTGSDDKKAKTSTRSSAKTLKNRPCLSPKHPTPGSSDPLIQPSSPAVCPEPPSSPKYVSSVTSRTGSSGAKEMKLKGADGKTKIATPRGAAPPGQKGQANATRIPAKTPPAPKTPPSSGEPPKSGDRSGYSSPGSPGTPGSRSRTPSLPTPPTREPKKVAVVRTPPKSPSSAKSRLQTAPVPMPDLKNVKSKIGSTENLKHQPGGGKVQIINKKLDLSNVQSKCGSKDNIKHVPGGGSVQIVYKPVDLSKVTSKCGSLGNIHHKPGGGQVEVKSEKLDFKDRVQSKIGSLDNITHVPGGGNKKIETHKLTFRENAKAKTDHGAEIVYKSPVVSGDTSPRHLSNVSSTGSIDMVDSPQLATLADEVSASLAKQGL
Outline: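 Human tau K18 […] P301L fragment, 15 uM unlabeled plus 0.24 uM Alexa 594-labeled tau (final), with compound and 20 uM heparin in 100 mM sodium acetate pH 7; 6 hr at 37 C, then Alexa 594 FP read.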
For `COc1ccc(S(=O)(=O)NCCc2sc3nc(-c4ccc(C)cc4)nn3c2C)cc1F`, the Potency was inconclusive: 8.91 µM [inhibitor, partial curve]. With `Cc1c(OCC(F)(F)F)ccnc1CS(=O)c1nc2ccccc2[nH]1` (stereo not given) the Potency was inconclusive: 20 µM [inhibitor, partial curve] and inconclusive: 15.8 µM [inhibitor, partial curve] and inconclusive: 10 µM [inhibitor, partial curve]. With `Cc1nn(Cc2ccccc2)c2c1C(c1ccco1)C(C#N)=C(N)O2` (stereo not given) the Potency was inconclusive: 0.0708 µM [inhibitor, full curve, poor fit]. `CCOC(=O)c1c(NS(=O)(=O)c2ccccc2)n(CCCOC)c2nc3ccccc3nc12` was tested, and the Potency was inconclusive: 10 µM [inhibitor, partial curve]. `O=c1[nH]c(=O)n(C2CCCCC2)c(O)c1C=Nc1ccc(N2CCOCC2)cc1` was tested, and the “activity, negative = inhibition” value was inactive: 2.5%. In the case of `CC(C)[C@@]1(NC(=O)[C@H]2CC3c4cccc5[nH]cc(c45)C[C@H]3N(C)C2)O[C@@]2(O)C3CCCN3C(=O)[C@@H](Cc3ccccc3)N2C1=O` (stereo not given in full), the Potency is reported as inconclusive: 44.7 µM [activator, single point]. For `Cc1ccc(NCc2cccn2-c2nnc(N3CCC(C(=O)NCc4ccc(OC(C)C)cc4)CC3)s2)cc1`, the Potency was inconclusive: 11.2 µM [activator, partial curve]. `CCN(CCO)c1ccc(N=Cc2c(O)n(C)c(=S)[nH]c2=O)cc1` was tested, and the “activity, negative = inhibition” value was inactive: -1.6%. In the case of `Oc1ccccc1O`, the Potency is reported as inconclusive: 1.41 µM [inhibitor, partial curve]. `COc1ccc(Br)cc1C1SCC(=O)Nc2c1c(C)nn2-c1ccccc1C` (stereo not given) was tested, and the Potency was inconclusive: 39.8 µM [inhibitor, single point]. For `COC1=C[C@H]2[C@H]3Cc4ccc(OC)c(O)c4[C@@]2(CCN3C)CC1=O`, the Potency was inconclusive: 44.7 µM [inhibitor, single point]. In the case of `O=C1C2CCN(CC2)[C@@H]1Cc1ccc2ccccc2c1O`, the “activity, negative = inhibition” value is reported as inactive: -2.12%. `C[C@@]12CC(c3ccoc3)OC(=O)C1CC[C@@]1(C)C2C2C=C[C@@]1(O)C(=O)O2` (stereo not given in full) was tested, and the Potency was inconclusive: 28.2 µM [inhibitor, single point]. For `COc1ccc(Cn2c(N)c(C(=O)NCc3ccco3)c3nc4ccccc4nc32)cc1OC`, the Potency was inconclusive: 28.2 µM [inhibitor, partial curve]. For `O=C1NC(=O)N(Cc2ccc(F)cc2)C(=O)/C1=C\c1ccc([N+](=O)[O-])s1`, the Potency was active: 0.355 µM. With `CC(=O)Nc1c2sscc-2n(C)c1=O` the Potency was inconclusive: 17.8 µM [inhibitor, partial curve]. With `N#CC1=C(N)Oc2c(c(=O)oc3ccccc23)C1c1ccc([N+](=O)[O-])o1` (stereo not given) the Potency was inconclusive: 11.2 µM [inhibitor, partial curve]. `CC(=O)c1cccc(NC(=O)CSc2ncc3c(n2)-c2cc(Cl)ccc2N(Cc2ccccc2)S3(=O)=O)c1` was tested, and the Potency was inconclusive: 20 µM [inhibitor, partial curve]. `CN1/C(=C\C=C2C(=O)NC(=S)NC2=O)C(C)(C)c2ccccc21` was tested, and the Potency was inconclusive: 39.8 µM [activator, single point]. In the case of `Cc1nc(Cl)sc1C(=O)Nc1ccc2ccccc2c1`, the Potency is reported as inconclusive: 20 µM [inhibitor, single point]. With `CCCc1nc2ccc(Br)cc2c(=O)n1-c1ccc([N+](=O)[O-])c(C(F)(F)F)c1` the “activity, negative = inhibition” value was inactive: -2.72%. `O=C(N/N=C/c1c(O)n(CCC2=CCCCC2)c(=S)[nH]c1=O)c1ccccc1` was tested, and the Potency was inconclusive: 31.6 µM [inhibitor, single point]. `O=C(NCCSc1c(-c2ccccc2)[nH]c2ccccc12)c1ccc(S(=O)(=O)N2CCOCC2)cc1` was tested, and the Potency was inconclusive: 39.8 µM [inhibitor, single point]. `O=c1[nH]c(=O)n(CCC2=CCCCC2)c(O)c1/C=N/Nc1cccc2ccccc12` was tested, and the Potency was inconclusive: 25.1 µM [inhibitor, partial curve]. In the case of `COC(=O)c1ccc(N=C(c2ccccc2)c2c(O)n(C)c(=O)n(C)c2=O)cc1`, the Potency is reported as inconclusive: 28.2 µM [inhibitor, single point].
